# Source: PubChem BioAssay AID504332 (National Center for Advancing Translational Sciences (NCATS), 2011)
# Several values for one entry are separate records, joined by “and”; a condition that tells them apart may be missing. Identical values can stand only once. Among all 350,000 compounds or so, about 31,000 (8.9%) were called active. Inconclusive results, whose numbers are uncertain, are shown with a selection of clear calls. The call rests on the fitted dose curve; in most records, active means well fitted inhibition curve with a large enough effect; inconclusive means small, poorly fitted or top-dose-only effect; inactive means no such curve, though single readings can be large or run the other way. Where the call is inconclusive, the potency comes from a doubtful curve fit.
# Target: Histone-lysine N-methyltransferase EHMT2 (Homo sapiens) (UniProt Q96KQ7)
# Assay: qHTS Assay for Inhibitors of Histone Lysine Methyltransferase G9a; further: nearly all actives have a fitted effect of over 75% in size
# Details: G9a H3K9 monomethylation, AlphaScreen, 2 h; activity, negative = inhibition: at 59 µM (top of the series) unless noted
# In short: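 Compounds were preincubated with 20 nM G9a for 15 min, after which biotinylated H3K9 peptide (500 nM) and SAM (20 uM) started a 2 h room-temperature reaction. Monomethylated product was quantified by antibody-based AlphaScreen chemiluminescence.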
# On the % scale 0 is the no-effect control and ±100 the full control effect; potency means the concentration at half of the fitted maximal effect; tags describe the fitted curve by direction and shape.
# Sequence of UniProt Q96KQ7 (Q96KQ7 whole entry, looked up): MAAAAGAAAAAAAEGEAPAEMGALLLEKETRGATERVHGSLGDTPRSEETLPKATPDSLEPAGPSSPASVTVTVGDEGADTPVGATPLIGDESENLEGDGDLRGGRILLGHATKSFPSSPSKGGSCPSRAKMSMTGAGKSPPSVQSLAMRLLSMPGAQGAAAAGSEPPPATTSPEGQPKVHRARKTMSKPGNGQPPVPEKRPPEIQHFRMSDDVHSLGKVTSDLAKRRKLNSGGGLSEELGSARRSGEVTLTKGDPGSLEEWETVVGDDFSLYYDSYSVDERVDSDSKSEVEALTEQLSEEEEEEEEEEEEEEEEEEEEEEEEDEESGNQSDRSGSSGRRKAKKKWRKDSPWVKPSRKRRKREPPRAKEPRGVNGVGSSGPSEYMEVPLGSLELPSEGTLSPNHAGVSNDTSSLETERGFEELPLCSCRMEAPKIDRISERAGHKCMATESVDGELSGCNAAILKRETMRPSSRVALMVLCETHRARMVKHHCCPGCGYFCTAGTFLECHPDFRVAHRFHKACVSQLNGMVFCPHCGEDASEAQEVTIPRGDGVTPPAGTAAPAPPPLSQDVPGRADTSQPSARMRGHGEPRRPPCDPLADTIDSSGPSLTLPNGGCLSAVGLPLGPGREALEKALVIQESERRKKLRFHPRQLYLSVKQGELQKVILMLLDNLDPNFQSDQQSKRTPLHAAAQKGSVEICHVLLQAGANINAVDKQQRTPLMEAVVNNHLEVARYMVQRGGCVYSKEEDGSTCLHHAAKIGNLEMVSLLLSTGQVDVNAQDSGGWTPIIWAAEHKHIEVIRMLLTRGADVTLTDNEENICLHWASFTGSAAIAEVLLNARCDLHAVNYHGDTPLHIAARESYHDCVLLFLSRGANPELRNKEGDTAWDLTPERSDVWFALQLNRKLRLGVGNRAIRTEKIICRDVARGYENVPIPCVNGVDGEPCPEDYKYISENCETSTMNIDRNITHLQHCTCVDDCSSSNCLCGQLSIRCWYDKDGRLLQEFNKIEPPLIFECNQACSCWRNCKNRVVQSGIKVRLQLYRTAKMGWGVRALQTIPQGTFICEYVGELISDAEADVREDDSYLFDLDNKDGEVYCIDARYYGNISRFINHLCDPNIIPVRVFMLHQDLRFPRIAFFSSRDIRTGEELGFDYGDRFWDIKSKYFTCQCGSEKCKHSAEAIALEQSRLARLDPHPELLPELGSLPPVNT
Structure (SMILES),Potency,"activity, negative = inhibition"
CCOC(=O)CSc1nc2cc3c(cc2c(=O)n1CCCC(=O)NCc1ccc2c(c1)OCO2)OCO3,"inconclusive: 5.62 µM [inhibitor, single point]",–
CC(=O)c1c(C)[nH]c(C(=O)Nc2nc(-c3ccc(Cl)cc3)cs2)c1C,"inconclusive: 28.2 µM [inhibitor, single point]",–
COc1cccc(NC(=O)CN(C)C(=O)c2ccc3[nH]c4c(c3c2)CC(C)CC4)c1 (stereo not given),active: 35.5 µM,–
COC(=O)C1=CN(c2ccc(F)c(F)c2)C=C(C(=O)OC)C1c1ccc([N+](=O)[O-])cc1,"inconclusive: 50.1 µM [inhibitor, partial curve, poor fit]",–
O=C(CC1C(=O)NCCN1Cc1cccc(F)c1)NC1CCCCC1 (stereo not given),"inconclusive: 79.4 µM [inhibitor, single point]",–
Cc1cccc(N2CCN(C(=O)c3ccc4c(c3)NC(=O)C(CSCc3cccc(F)c3)N4)CC2)c1C (stereo not given),active: 10 µM,–
CCOCCOC(=O)C(C)Sc1n[nH]c(=O)[nH]c1=O (stereo not given),"inconclusive: 4.47 µM [inhibitor, single point]",–
COc1ccccc1NC(=O)C(C)OC(=O)/C(=C/c1ccccc1)NC(C)=O (stereo not given),"inconclusive: 56.2 µM [inhibitor, partial curve, poor fit]",–
O=C(Nc1ccc(F)cc1F)C1CCCN(c2ncnc3c2nc2n3CCCCC2)C1 (stereo not given),"inconclusive: 100 µM [inhibitor, partial curve, poor fit]",–
NCCc1nnc(SCc2ccc(Cl)cc2)o1,inactive,–
COc1cc(C(=O)Nc2cc(C)ccc2OCc2cc(=O)n3cc(C)sc3n2)cc(OC)c1OC,inactive,–
CCCN1CCC(=O)N([C@H](CO)Cc2ccccc2)CC1,"inconclusive: 79.4 µM [inhibitor, single point]",–
CCOC(=O)C1=C(C)N(c2ccccc2)C(=O)C1,inactive,–
C/C(=N\NC(=S)Nc1c(C)cccc1C)c1ccc(OC(F)F)cc1,active: 8.91 µM,–
CCCCC(CC)Cn1c(O)c(/C=C2\C=NN=C2c2ccccc2)sc1=S (stereo not given),"inconclusive: 39.8 µM [inhibitor, single point]",–
CC1c2cc3c(cc2CCN1C(=O)c1cccc(Cl)c1)OCCCO3 (stereo not given),"inconclusive: 70.8 µM [inhibitor, single point]",–
O=C(CCCN1C(=O)/C(=C/c2cccs2)SC1=S)Nc1cccc(O)c1,active: 28.2 µM,–
CCCc1cc(=O)[nH]c(SCc2ccc(Cl)cc2)n1,inactive,–
CSc1cccc(NC(=S)Nc2cc(C)ccc2C)c1,inactive,–
COc1ccc(S(=O)(=O)NCCCn2ccnc2)cc1Cl,"inconclusive: 44.7 µM [inhibitor, partial curve, poor fit]",–
Nc1sc(-c2ccccc2)c(Cc2ccccc2)c1C(=O)O,active: 50.1 µM,–
Cc1nnc(NC(=O)c2nc(S(=O)(=O)Cc3ccccc3)ncc2Cl)s1,active: 8.91 µM and active: 39.8 µM,–
CCOc1ccc(NC(=O)C(C)Sc2nnc3cc(C)c4ccccc4n23)cc1 (stereo not given),inactive,–
Cc1ccc(NC(=S)N(CCCN2CCOCC2)Cc2cccs2)c(C)c1,"inconclusive: 28.2 µM [inhibitor, single point]",–

Structure (SMILES),Potency,"activity, negative = inhibition"
COC(=O)c1cccc(NC(=O)Cc2coc3cc(OC)ccc23)c1,"inconclusive: 39.8 µM [inhibitor, single point]",–
CC(=O)Nc1c(C)nn(-c2ccccc2)c1N1CCC(C(=O)Nc2cc(Cl)ccc2C)CC1,inactive,–
O=C1CN(C(=O)c2c(F)cccc2F)C(c2ccc(F)cc2)c2cc(Br)ccc2N1 (stereo not given),"inconclusive: 50.1 µM [inhibitor, partial curve, poor fit]",–
COc1ccccc1-[n+]1c(C)cc(/C=C2\Sc3ccccc3N2C)cc1C,–,inconclusive: -69.4% [inhibitor]
CCN(CC)CCNC(=O)c1ccc(NC(=O)c2c(C)nn(-c3ccc(F)cc3)c2Cl)cc1,"inconclusive: 89.1 µM [inhibitor, single point]",–
CCOC(=O)C1CN(S(=O)(=O)c2cc(OC)ccc2OC)C1,"inconclusive: 56.2 µM [inhibitor, partial curve, poor fit]",–
CCOC(=O)Cc1cc(=O)n2[nH]cc(-c3ccc(Cl)cc3)c2n1,"inconclusive: 79.4 µM [inhibitor, partial curve, poor fit]",–
CCCNC(=O)c1nn2cc(Br)cnc2c1Cl,"inconclusive: 28.2 µM [inhibitor, full curve]",–
Cc1coc(C)c1C(=O)CC1(O)C(=O)N(CCc2ccccc2)c2ccccc21 (stereo not given),"inconclusive: 3.55 µM [inhibitor, partial curve, poor fit]",–
N#C/C(=C\c1ccc(-c2cccc([N+](=O)[O-])c2)o1)C(=O)NCCN1CCOCC1,"inconclusive: 89.1 µM [inhibitor, single point]",–
CCn1c(CCNC(=O)c2ccc(Cl)cc2)n[nH]c1=S,–,inconclusive: -96.7% [inhibitor]
CSCCCNC(=S)N1CCN(c2ccc(C(C)=O)cc2)CC1,"inconclusive: 79.4 µM [inhibitor, partial curve, poor fit]",–
CC1=CC(C)(C)n2c(O)c(N=N)c3cc(C)cc1c32,"inconclusive: 25.1 µM [inhibitor, single point]",–
Cc1cccn2cc(-c3ccc(NC(=O)Cc4ccccc4)cc3)nc12,"inconclusive: 89.1 µM [inhibitor, partial curve, poor fit]",–
C#CCNC(=O)C1=C[C@H](c2ccc(C(F)(F)F)cc2)C[C@H](OCc2ccc(CO)cc2)O1,–,inactive: 14.5% [at 12.7 µM]
Cc1cccc(NC(=O)C(=O)NCC(c2cccnc2)N2CCOCC2)c1 (stereo not given),inactive,–
C=CCNC(=S)N1CCC(C(=O)c2ccc(F)cc2)CC1,inactive,–
O=C(O)[C@@H]1CSCN1,–,inactive: -1.74% [at 12.7 µM]
CC(NC(=O)c1ccc(S(=O)(=O)N(C)C)cc1)c1ccccc1 (stereo not given),–,inactive: 3.96% [at 12.7 µM]
CN(C(=O)CSc1cn(CC(=O)N2CCCCC2)c2ccccc12)c1ccccc1,inactive,–
COc1ccccc1S(=O)(=O)Cc1ccc(C(=O)N2CCN(c3ccc(C)cc3)C(C)C2)o1 (stereo not given),"inconclusive: 31.6 µM [inhibitor, single point]",–
O=C(CCCCCN1C(=O)c2cccc3cccc(c23)C1=O)NO,inactive,–
O=C(CCOc1ccccc1)N1CCN(S(=O)(=O)c2cccs2)CC1,"inconclusive: 44.7 µM [inhibitor, partial curve, poor fit]",–
Cc1cc(C)cc(NC(=O)CCCN2C(=O)C(c3ccccc3)Oc3cccnc32)c1 (stereo not given),inactive,–

Structure (SMILES),Potency,"activity, negative = inhibition"
Cc1nn(C)c(C)c1NC(=O)CCl,active: 44.7 µM,–
Cc1ccc(C)c(OC(=O)C2CSC3(C)CCC(=O)N23)c1C (stereo not given),inactive,–
O=C(Nc1cccc(N2C(=O)C=CC2=O)c1)c1cccs1,–,inconclusive: -98.9% [inhibitor] [at 2.33 µM]
COc1ccc(N2CCN(C(c3cc4cc(C)ccc4[nH]c3=O)c3nnnn3Cc3ccccc3)CC2)cc1 (stereo not given),"inconclusive: 35.5 µM [inhibitor, partial curve, poor fit]",–
CCOC(=O)C=C(C(=O)OCC)C(=O)OCC,active: 12.6 µM,–
CC1CCN(S(=O)(=O)c2ccc(NC(=S)NC(=O)c3ccc(Cl)cc3)cc2)CC1,–,inactive: -2.04% [at 2.33 µM]
CCOC(=O)c1c(C)c(C(=O)NCCc2ccc(OC)cc2)c(C)n1C,inactive,–
Cc1cccc(-c2n[nH]c(=S)n2/N=C/C=C/c2ccco2)c1,active: 1.58 µM,–
COc1ccc(C(NC(=O)CC(C)C)c2c(O)ccc3ccccc23)cc1 (stereo not given),"inconclusive: 1.12 µM [inhibitor, partial curve, poor fit]",–
COC(=O)c1sccc1NC(=O)CN1CCN(c2ccc(F)cc2)CC1,active: 44.7 µM,–
O=C(Nc1ccccc1N1CCCCC1)c1cccc([N+](=O)[O-])c1,"inconclusive: 20 µM [inhibitor, partial curve]",–
Cc1ccc2cccc(OCC(=O)c3cc(C)n(Cc4ccco4)c3C)c2n1,"inconclusive: 70.8 µM [inhibitor, single point]",–
Cn1cccc1Cc1nnc(SCC(=O)Nc2nccs2)n1C,"inconclusive: 89.1 µM [inhibitor, single point]",–
CN1CCN(C(=O)c2cc3nc(-c4ccccc4)cc(-c4ccccc4)n3n2)CC1,"inconclusive: 50.1 µM [inhibitor, partial curve]",–
O=C(/C=C/c1ccco1)Nc1ccc2nn(-c3ccccc3)nc2c1,"inconclusive: 39.8 µM [inhibitor, single point]",–
O=C(c1ccc(-n2cncn2)c([N+](=O)[O-])c1)N1CCN(S(=O)(=O)c2c(F)cccc2F)CC1,"inconclusive: 89.1 µM [inhibitor, single point]",–
Cc1ccc2nc(-c3ccccn3)c(Nc3ccc(F)cc3)n2c1,inactive,–
COc1ccc(N2CCN(C(=O)CCc3ccc(S(=O)(=O)NC(C)C)cc3)CC2)cc1,"inconclusive: 20 µM [inhibitor, single point]",–
COc1cc(/C=N/Nc2ccc(Cl)cc2)ccc1OC(=O)c1cccs1,"inconclusive: 22.4 µM [inhibitor, single point]",–
CCC(C)NC(=O)c1ccc2c(c1)N(Cc1ccccc1)C(=O)c1ccccc1S2(=O)=O (stereo not given),inactive,–
Cc1cc(-c2nc(C)c(C(=O)NNS(=O)(=O)c3ccccc3)s2)no1,inactive,–
C=CCOc1ccc(/C=C/C(=O)OCC(=O)NC2CCCCCC2)cc1,"inconclusive: 56.2 µM [inhibitor, single point]",–
